Data on 105 compounds can be found in PubChem BioAssay AID1347073 (National Center for Advancing Translational Sciences (NCATS), 2019).

The campaign covered roughly 45,000 compounds. About 200 (0.44%) were called active. Roughly 7% stayed inconclusive and do not appear here. The call rests on the fitted dose curve; in most records, active means well fitted activation curve with a large enough effect; inconclusive means small, poorly fitted or top-dose-only effect; inactive means no such curve, though single readings can be large or run the other way. Some of the results follow.

A short description of this experiment: qHTS of TDP-43 Inhibitors: NCGC Sytravon Library Screen. Further: 0% is about no effect; nearly all actives have a fitted effect of over 55% in size. As to conditions: yeast TDP-43 toxicity rescue, BacTiter-Glo growth, 24 h; series mostly up to 46.1 µM; growth rescue (activation): at the top concentration. Put shortly: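 TDP-43-expressing yeast, pregrown in raffinose, seeded at OD600 0.02 in galactose medium with compound for 24 hr at 30 deg C. Growth read by BacTiter-Glo luminescence, so rescue of toxicity appears as activation.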
A general note: Quantitative high-throughput screening tests each substance at several concentrations.
Take `CCCCNC(=S)Nc1ccc([N+](=O)[O-])cc1`: the “growth rescue (activation)” value is inactive: 27.1%.
As to `COc1ccc([N+](=O)[O-])cc1N(CC(=O)NCC1CCCO1)S(C)(=O)=O` (stereo not given), the “growth rescue (activation)” value was inactive: 8.71%.
`CCN(CCCNC(=O)CNC(=O)c1nn(-c2ccc(OC)c(OC)c2)c(=O)c2ccccc12)c1ccccc1`: the “growth rescue (activation)” value is inactive: 2.61%.
Then `COc1ccc(Cn2c3ccc(OC)cc3c3nc4ccccc4nc32)cc1`, with inactive: 7.29%.
The figure for `CCOc1cc(N2CCOCC2)c(OCC)cc1NC(=O)C(C)(C)C` is inactive: 7.44%; for `COc1ccc(NC(=O)C(=O)NNC(=O)C(C)Oc2ccc(Cl)cc2Cl)cc1` (stereo not given) it is inactive: -8.83%.
For the compound `Cc1ccc(C)c(N(CC(=O)Nc2ccccc2C(=O)NCc2ccco2)S(=O)(=O)c2ccccc2)c1`, the “growth rescue (activation)” value is inactive: 7.93%.
For the compound `CC(C)c1ccc(N(CC(=O)NCc2ccc(F)cc2)C(=O)c2snc(C(N)=O)c2N)cc1`, the “growth rescue (activation)” value is inactive: -4.22%.
For the compound `O=C(Cn1cnc2ccccc2c1=O)c1ccc(OC(F)F)cc1`, the “growth rescue (activation)” value was inactive: -32.8%.
The figure for `CCCNC(=O)c1ccccc1NC(=O)CN(c1ccccc1)S(=O)(=O)N(C)C` is inactive: -4.42%; for `CCCNC(=O)C1(C)CCCN(Cc2cccc(C(F)(F)F)c2)C1` (stereo not given) it is inactive: -6.75%.
Then `COc1ccccc1C(=O)Nc1ccc(N2CCN(Cc3ccccc3)CC2)cc1`, with inactive: -2.89%; and `Cc1ccc(-n2nc3c(c2NC(=O)c2ccc4c(c2)OCO4)CS(=O)C3)cc1` (stereo not given), with inactive: 28.2%.
Turning to `Cc1cccc(NS(=O)(=O)c2ccc3c(c2)NC(=O)CC(=O)N3)c1`, the “growth rescue (activation)” value is inactive: 2.63%.
The figure for `COc1ccc(C2C3=C(CC(C)(C)CC3=O)N(C)C3=C2C(=O)CC(C)(C)C3)cc1` is inactive: -4.4%.
The figure for `COc1ccc([N+](=O)[O-])cc1NC(=O)CCSCCc1ccccn1` is inactive: 7.93%; for `CC1CCC(=NNc2ccc(C(F)(F)F)cc2[N+](=O)[O-])CC1` (stereo not given) it is inactive: -3.75%.
Then `O=C(OCc1cncs1)c1ccccc1`, with inactive: -1.39%; and `CC(=O)N1CCN(CC(=O)Nc2cccc(S(=O)(=O)N3CCCCCC3)c2)CC1`, with inactive: -5.1%.
Regarding `Cc1ccc(NC(=O)CN(C)C(=O)c2ccc(Cl)c([N+](=O)[O-])c2)cc1`, the “growth rescue (activation)” value was inactive: -25.3%.
The figure for `CN(C1CCS(=O)(=O)C1)S(=O)(=O)c1ccccc1[N+](=O)[O-]` (stereo not given) is inactive: -0.993%; for `CCOC(=O)N(C)c1c(CC)nc2c(OCc3cc(Cl)cc(Cl)c3)cccn12` it is inactive: 6.49%; for `Cc1c(Cl)cccc1N(Cc1ccc(C(=O)O)cc1)S(=O)(=O)c1ccccc1` it is inactive: 11.4%.
Then `O=C(NNC(=O)c1n[nH]c2ccccc12)c1ccccc1`, with inactive: -0.786%; and `O=C(Nc1ccc(S(=O)(=O)Nc2ccccn2)cc1)c1ccc(Cl)cc1Cl`, with inactive: 8.62%; and `CN1CCN(C(=O)c2ccc(COc3cc(Cl)ccc3Cl)o2)CC1`, with inactive: -26.8%.
The figure for `O=C(CSc1nc(-c2ccccc2)cc(C(F)(F)F)n1)NCc1cccs1` is inactive: 24.9%; for `O=C(CN1C(=O)c2ccccc2C1=O)NCc1ccc(C(=O)O)cc1` it is inactive: 9.58%.
Turning to `COCCn1c(SCC(=O)N2CCCC2)nnc1-c1ccco1`, the “growth rescue (activation)” value is inactive: 16%.
With `Cc1ccc(NC(=O)C2=C(c3ccccc3)S(=O)(=O)CCS2(=O)=O)cc1`, the “growth rescue (activation)” value is inactive: 5.26%.
Consider `Cc1cc2cc(CN(CC3CCCO3)C(=O)c3cnccn3)c(=O)[nH]c2cc1C` (stereo not given), for which the “growth rescue (activation)” value was inactive: 7%.
For the compound `Cc1ccc2c(c1)N(CC(=O)NC1CCCC1)C(=O)CO2`, the “growth rescue (activation)” value was inactive: 5.67%.
With `CCn1c(C)nc2cc(C(=O)NNC(=S)Nc3ccccc3)ccc21`, the “growth rescue (activation)” value was inactive: -3.69%.
Turning to `NC(=O)C1CCN(C(=O)c2cc(-c3ccccc3Cl)nc3ccccc23)CC1`, the “growth rescue (activation)” value is inactive: 19.1%.
Then `COc1cc2c(cc1OC)-c1cc(N3CCc4ccccc43)nc(=O)n1CC2`, with inactive: -14.8%; and `Cc1ccc(N(CC(=O)NC2CCCC2)C(=O)c2ccc(C)s2)cc1`, with inactive: 18.5%.
For `Cc1cccc(C(=O)NNS(=O)(=O)c2ccc(F)cc2)c1`, the “growth rescue (activation)” value is inactive: -14.8%.
As to `O=c1cnnc(Nc2cccc(F)c2)[nH]1`, the “growth rescue (activation)” value is inactive: -8.14%.
Then `COc1ccc(CNC(=O)C2CCN(C(=O)N3CCOc4ccc(C)cc43)CC2)cc1`, with inactive: -4.5%.
Then `COc1cccc(CCNc2ccc(N3C(=O)CC(C)C3=O)cc2[N+](=O)[O-])c1` (stereo not given), with inactive: 7.27%; and `CCCc1cc(=O)[nH]c(SCC(=O)N2CCN(S(=O)(=O)c3ccc4ccccc4c3)CC2)n1`, with inactive: 5.92%.
Then `COC(=O)c1ccccc1NC(=O)CSc1ncn[nH]1`, with inactive: 7.49%.
For `CCOC(=O)c1sc(NC(=O)CCN2C(=O)c3ccccc3C2=O)c(C(=O)OCC)c1C`, the “growth rescue (activation)” value was inactive: 2.54%.
`O=C(O)c1cc2c(cc1NC(=O)c1ccccc1OC(F)F)OCCCO2`: the “growth rescue (activation)” value is inactive: 4.3%.
Regarding `Cc1cc(NS(=O)(=O)c2ccc(NC(=O)C(C)Oc3cccc(C)c3C)cc2)nc(C)n1` (stereo not given), the “growth rescue (activation)” value is inactive: 21%.
Consider `COc1ccccc1N1CCN(c2c3c(nc4nncn24)CCC3)CC1`, for which the “growth rescue (activation)” value is inactive: -2.85%.
The figure for `CC1(C)C(=O)Nc2ccccc2N1C(=O)CN1C(=O)C(=O)N(C2CCCC2)C1=O` is inactive: 1.44%; for `CN(C)CCC(=O)N1c2ccccc2Sc2ccc(Cl)cc21` it is inactive: 9.56%; for `CC(C)(C)C1=C(C#N)C(c2cc3c(cc2Br)OCO3)C(C#N)=C(N)O1` (stereo not given) it is inactive: 3.57%.
Then `NC(=O)c1ccsc1NC(=O)COC(=O)[C@@H]1CCCN1C(=O)c1cccs1`, with inactive: 11.1%; and `CC(CC(=O)N1CCN(c2ccccc2F)CC1)c1ccccc1` (stereo not given), with inactive: 10.6%.
The figure for `Cc1cccc(-n2nnnc2SCC(=O)NC2CCCC2)c1` is inactive: 5.01%; for `Cc1ccc(/C=C/C(=O)OCC(=O)c2ccc3c(c2)NC(=O)CO3)o1` it is inactive: 10.2%.
As for `Cc1nnc(SCc2nc3sc(C(=O)O)c(C)c3c(=O)[nH]2)s1`, the “growth rescue (activation)” value is inactive: -2.55%.
For `CCCOC(=O)c1c(NC(=O)CCC(=O)O)sc2c1CCCCC2`, the “growth rescue (activation)” value is inactive: 11.7%.
In the case of `CC(C)Cc1nnc(NC(=O)c2cc(-c3ccncc3)nc3ccccc23)s1`, the “growth rescue (activation)” value was inactive: -2.55%.
The figure for `CCCC(=O)Nc1ccc(Cl)c(NC(=S)NC(=O)c2ccco2)c1` is inactive: 15.7%; for `Cc1ccc(/C=N/N2CCN(C3c4ccccc4-c4ccccc43)CC2)s1` it is inactive: -0.512%; for `CCn1c(SCC(=O)NC2CCCCC2)nnc1-c1ccccc1F` it is inactive: -3.89%.
As to `OC(c1ccc(F)cc1)c1nc(-c2cncnc2)cs1` (stereo not given), the “growth rescue (activation)” value was inactive: 11.8%.
For the compound `COc1ccc(-c2nnn(CC(=O)N(Cc3ccco3)C(C(=O)NCC3CCCO3)c3ccco3)n2)cc1` (stereo not given), the “growth rescue (activation)” value was inactive: -16.6%.
`CCn1c(CNC(=O)c2ccco2)nnc1SCC(=O)c1ccc(F)cc1`: the “growth rescue (activation)” value was inactive: -0.316%.
Then `O=C(CN1CCN(S(=O)(=O)c2ccccc2F)CC1)Nc1ccccc1C(=O)c1ccccc1`, with inactive: 15.3%; and `O=C(COC(=O)/C=C/c1ccccc1[N+](=O)[O-])Nc1ccc(OCc2ccccc2)cc1`, with inactive: 4.59%; and `O=C(O)CN1C(=O)/C(=C\c2cc([N+](=O)[O-])ccc2OCc2ccccc2Cl)SC1=S`, with inactive: -0.786%.
Consider `O=C(N/N=C/c1ccc[nH]1)c1ccc([N+](=O)[O-])cc1`, for which the “growth rescue (activation)” value was inactive: -9.77%.
The figure for `Cc1ccc(C(O)c2ncc(-c3cccc(C(F)(F)F)c3)[nH]2)cc1F` (stereo not given) is inactive: 4.96%; for `CC1(C)Oc2ccc(C(=O)N/N=C/c3ccc(O)cc3)cc2NC1=O` it is inactive: 1.97%; for `Cc1ccc(NP(=O)(c2ccc(N(C)C)cc2NC(=O)c2cccs2)N2CCOCC2)cc1` (stereo not given) it is inactive: 2.12%.
In the case of `Cc1ccc(S(=O)(=O)NCCCNc2ccc([N+](=O)[O-])cc2)cc1`, the “growth rescue (activation)” value is inactive: 12.3%.
Then `COc1ccc(OC)c(Nc2nc(NCCO)c3ccccc3n2)c1`, with inactive: 18.1%; and `CCOC(=O)CN(C(=O)CNC(=O)c1ccco1)C(C(=O)NC1CCCCC1)c1cccnc1` (stereo not given), with inactive: 10.6%.
Regarding `Cc1cccc(C(=O)NCCNC(=O)c2ccco2)c1`, the “growth rescue (activation)” value was inactive: -35.9%.
On to `Cc1ccc(C(=O)NCCNS(=O)(=O)c2ccccc2)cn1`, for which the “growth rescue (activation)” value is inactive: 0.749%.
Then `CCOC(=O)C1(Cc2cccc(OC)c2)CCN(C(C)CC(C)(C)O)CC1` (stereo not given), with inactive: 12%.
The figure for `C=CCOc1ccc(/C=C2\SC(=S)N(NS(=O)(=O)c3ccc(C)cc3)C2=O)cc1` is inactive: 7.88%; for `O=C(c1ccc2c(c1)N(Cc1ccccc1)C(=O)c1ccccc1S2(=O)=O)N1CCC(Cc2ccccc2)CC1` it is inactive: 3.65%.
`CC1CCCC(C)N1C(=O)COC(=O)CCc1nc2ccccc2c(=O)[nH]1` (stereo not given): the “growth rescue (activation)” value is inactive: 25.1%.
The figure for `O=C(Nc1ccnn1C1CCN(C(=O)c2ccc(F)cc2)CC1)C1CCOC1` (stereo not given) is inactive: 7.61%; for `Cc1ccc(NC(=O)C/C(N)=N/OC(=O)Nc2ccc(C)c(Cl)c2)cc1` it is inactive: 11%; for `CNc1nnc(-c2ccc(C)cc2)c2ccccc12` it is inactive: -14.9%.
As for `COc1cccc(C(=O)N(C)CC(=O)Nc2ccc(F)c(F)c2F)c1`, the “growth rescue (activation)” value was inactive: -6.88%.
Then `CC1CN(C(=O)[C@@H]2CCCN2S(=O)(=O)c2ccc(Cl)cc2)CC(C)O1` (stereo not given in full), with inactive: 17.8%.
The figure for `CCCCC(=O)NCc1ccc(Cl)cc1` is inactive: 5.47%; for `CCC(C)[C@H](NC(=O)N1CCC(C)CC1)C(=O)O` (stereo not given in full) it is inactive: 24.2%.
The figure for `O=C(NCCc1ccccn1)C1CCCN1S(=O)(=O)c1ccc(Cl)cc1` (stereo not given) is inactive: -1.75%; for `CCNC(=O)NC(=O)COC(=O)c1cccc(NS(=O)(=O)/C=C/c2ccccc2)c1` it is inactive: 2.27%; for `O=C(Nc1ccccn1)c1ccc(Cl)c([N+](=O)[O-])c1` it is inactive: 9.3%.
Take `CCN(CC)S(=O)(=O)c1ccc(NC(=O)c2ccc(N3CCCC3=O)cc2)cc1`: the “growth rescue (activation)” value is inactive: 16.9%.
The figure for `CN(C)C(CNC(=O)CCC(=O)c1ccc(Br)cc1)c1ccccc1` (stereo not given) is inactive: -0.188%; for `Cc1ccc(NC(=S)N(Cc2cccs2)Cc2cc3cc(C)cc(C)c3[nH]c2=O)cc1` it is inactive: 13%.
Then `Cc1ccc(NC(=O)CCC(=O)NNC(=O)c2ccccc2)c(C)c1`, with inactive: 2.88%.
Then `Cc1ccc(CNC(=O)Nc2cccs2)cc1`, with inactive: 11.9%; and `Cn1cc(CNCC2CCCO2)c(-c2ccc(Oc3ccccc3)cc2)n1` (stereo not given), with inactive: 10.6%; and `Cc1ccnc(NCc2ccccc2O)c1`, with inactive: 2.83%.
As to `CN1c2ccccc2C(=O)NC1c1ccc(Cl)cc1` (stereo not given), the “growth rescue (activation)” value is inactive: 14.8%.
The figure for `CCN1CCc2nc3sc(C(=O)N4CCc5ccccc5C4)c(N)c3cc2C1` is inactive: 22.4%.
Consider `O=C1N/C(=C/c2ccc(Br)cc2)C(O)=C1C=NCc1ccccc1`, for which the “growth rescue (activation)” value was inactive: 8.5%.
With `O=S(=O)(CCOc1ccccc1)N1CCOCC1`, the “growth rescue (activation)” value is inactive: 9.15%.
As for `CC(=O)NCCNc1ccc([N+](=O)[O-])cc1C#N`, the “growth rescue (activation)” value was inactive: 16.6%.
The figure for `NS(=O)(=O)c1ccc(CNC(=O)c2ccc(NS(=O)(=O)c3cccs3)cc2)cc1` is inactive: 24.3%; for `COc1ccccc1CC(=O)Nc1ccc([N+](=O)[O-])cc1O` it is inactive: -23%; for `CCOc1ccc2nc(SCC(=O)Nc3cc(C)on3)c(C)cc2c1` it is inactive: 6.18%.
Consider `Cc1cc(NC(=O)CS(=O)(=O)Cc2ccccc2)no1`, for which the “growth rescue (activation)” value is inactive: -4.67%.
The figure for `O=C(c1cc(S(=O)(=O)N2CCCCC2)c(Cl)cc1N1CCOCC1)N1CCOCC1` is inactive: -0.141%.
